Experimental data as given in paper PMC6776900, “PPM1G forms a PPP‐type phosphatase holoenzyme with B56δ that maintains adherens junction integrity” (EMBO Reports, 2019).
Residue numbers refer to the chain shown, from its start. These are yes or no findings as the source states them, for the method shown. In cells and extracts the contact can be indirect. Some binding calls cover weakened binding; strength is not graded here.

The chains behind the UniProt entries cited, without tags or fusion partners.
UniProt P35221: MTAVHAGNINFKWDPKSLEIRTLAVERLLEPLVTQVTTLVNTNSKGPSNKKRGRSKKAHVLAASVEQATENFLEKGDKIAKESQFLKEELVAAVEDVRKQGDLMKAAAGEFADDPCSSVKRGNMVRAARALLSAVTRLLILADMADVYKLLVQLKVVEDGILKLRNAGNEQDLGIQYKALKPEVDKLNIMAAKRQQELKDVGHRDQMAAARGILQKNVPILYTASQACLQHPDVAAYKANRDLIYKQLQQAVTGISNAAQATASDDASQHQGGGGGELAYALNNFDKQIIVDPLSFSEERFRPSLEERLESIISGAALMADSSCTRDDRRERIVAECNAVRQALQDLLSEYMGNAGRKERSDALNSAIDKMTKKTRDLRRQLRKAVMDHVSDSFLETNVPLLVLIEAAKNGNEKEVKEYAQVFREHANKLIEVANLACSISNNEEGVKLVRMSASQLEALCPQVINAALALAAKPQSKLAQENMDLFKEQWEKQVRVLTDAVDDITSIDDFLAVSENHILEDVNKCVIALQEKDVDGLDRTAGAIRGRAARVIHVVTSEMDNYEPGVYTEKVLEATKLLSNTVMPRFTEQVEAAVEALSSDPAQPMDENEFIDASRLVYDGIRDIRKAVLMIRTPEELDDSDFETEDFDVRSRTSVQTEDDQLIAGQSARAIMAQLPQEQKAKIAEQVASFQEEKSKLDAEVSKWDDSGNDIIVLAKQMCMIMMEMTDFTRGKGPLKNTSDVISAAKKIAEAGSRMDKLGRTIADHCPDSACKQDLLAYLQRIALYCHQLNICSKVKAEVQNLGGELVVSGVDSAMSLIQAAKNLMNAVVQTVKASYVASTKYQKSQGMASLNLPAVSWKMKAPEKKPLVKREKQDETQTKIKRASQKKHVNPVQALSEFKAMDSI

Tests used:
SFB-PPM1G A237D (human) = molecular target: T1, SFB-PPM1G A237D (human) (UniProt O15355); test: pull-down; SFB-tagged bait expressed in cells (HEK293T/293T where named), lysate in NETN buffer, streptavidin Sepharose beads 1 h at 4°C, endogenous prey detected by Western blot; Fig 3B/3L control shRNA cells; Fig 4C control, PPM1G and B56δ shRNA cells
T1 sequence: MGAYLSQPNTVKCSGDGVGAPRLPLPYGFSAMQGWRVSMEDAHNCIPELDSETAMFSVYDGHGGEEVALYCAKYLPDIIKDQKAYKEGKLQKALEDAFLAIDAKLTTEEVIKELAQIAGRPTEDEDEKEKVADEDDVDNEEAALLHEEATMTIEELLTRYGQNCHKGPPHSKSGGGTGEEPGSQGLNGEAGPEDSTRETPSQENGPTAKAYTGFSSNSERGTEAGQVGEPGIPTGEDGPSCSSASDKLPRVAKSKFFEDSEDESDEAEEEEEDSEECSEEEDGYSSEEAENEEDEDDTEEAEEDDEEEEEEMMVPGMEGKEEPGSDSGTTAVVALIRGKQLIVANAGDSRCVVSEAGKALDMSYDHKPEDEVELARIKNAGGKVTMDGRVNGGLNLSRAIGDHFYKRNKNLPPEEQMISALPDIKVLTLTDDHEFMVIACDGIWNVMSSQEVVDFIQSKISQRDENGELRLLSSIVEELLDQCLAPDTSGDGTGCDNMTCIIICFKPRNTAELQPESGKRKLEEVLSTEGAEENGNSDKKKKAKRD

SFB-PPM1G S173C (human) = molecular target: T2, SFB-PPM1G S173C (human) (UniProt O15355); test: as above
T2 sequence: T1 sequence with S173C, D237A

SFB-PPM1G ΔNLS (human) = molecular target: T3, SFB-PPM1G ΔNLS (human) (UniProt O15355); test: pull-down; B56δ shRNA (B56δ-depleted) cells transfected with SFB-PPM1G or SFB-PPM1G ΔNLS; streptavidin beads; endogenous α-catenin by Western blot
T3 sequence: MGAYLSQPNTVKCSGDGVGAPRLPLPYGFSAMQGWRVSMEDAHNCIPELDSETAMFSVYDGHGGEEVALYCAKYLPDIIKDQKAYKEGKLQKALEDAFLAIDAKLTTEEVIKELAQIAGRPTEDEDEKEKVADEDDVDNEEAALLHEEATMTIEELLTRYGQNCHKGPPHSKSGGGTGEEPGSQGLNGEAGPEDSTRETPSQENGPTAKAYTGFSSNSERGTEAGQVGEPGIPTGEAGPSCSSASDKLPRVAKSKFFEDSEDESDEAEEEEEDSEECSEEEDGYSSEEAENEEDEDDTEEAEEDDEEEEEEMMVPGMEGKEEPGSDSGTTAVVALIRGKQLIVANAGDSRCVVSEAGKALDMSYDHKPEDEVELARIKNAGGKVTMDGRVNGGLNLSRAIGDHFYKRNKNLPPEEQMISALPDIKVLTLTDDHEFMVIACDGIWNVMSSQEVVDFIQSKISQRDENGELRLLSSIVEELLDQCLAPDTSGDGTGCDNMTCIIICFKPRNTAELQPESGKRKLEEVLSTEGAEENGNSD

[1] = molecular target: T4, SFB-PPM1G full length (FL) (human) (UniProt O15355); test: as above
T4 sequence: T1 sequence with D237A

“endogenous α-catenin (from UniProt P35221 1-906)” was tested, and the binding (SFB-PPM1G A237D (human)) was “binds”, the binding (SFB-PPM1G S173C (human)) was “binds” and the binding (SFB-PPM1G ΔNLS (human)) was “binds”. The binding [1] was “no binding (condition: B56δ-depleted cells (shRNA))”.
